Among all 360,000 compounds or so, about 7,500 (2.1%) were called active. The inconclusive results got no clear call from the source; some entries with a clear call stand among them for comparison. Calls follow the shape of the dose curve; as a rule, active = well fitted cell-killing curve with a large enough effect; inconclusive = small, poorly fitted or top-dose-only effect, or effect the other way, or another doubt; inactive = no such curve, though single readings can be large or run the other way. No potency is given beside an inconclusive call; the fits are too rough.
Experiment: qHTS for induction of synthetic lethality in tumor cells producing 2HG: qHTS for the HT-1080-IDH1KD cell line;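 as to activity, negative = toxicity: 0% = DMSO wells and -100% = cell-free medium wells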
Settings: HT-1080 IDH1 knockdown viability, ATP luminescence, 48 h; activity, negative = toxicity: at 46.1 µM (top of the series) unless noted
Outline: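 Assay cells: HT-1080 with IDH1 knockdown, 750 per well, RPMI/5% FBS. Exposure: 48 h at 37 °C following 2 h pre-incubation. Read: CellTiter-Glo luminescence; fitted concentration-response, curve class assigned.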
Potency is read from the fitted curve at half-maximal effect; tags tell the direction and shape of the fitted curve.

Compound	Potency	activity, negative = toxicity
CC(=O)NC1(NC(C)=O)CCN(C)CC1	inactive	–
CCOc1ccccc1C(=O)NCC(=O)N(C)Cc1ccccc1C	inconclusive [cytotoxic, partial curve, poor fit]	–
CC(Oc1ccc(Cl)cc1Cl)C(=O)NC(=S)N1CCc2ccccc21 (configuration not stated)	–	inconclusive: -33.8% [cytotoxic]
COc1cc(COc2ccc3c(C)c(CCC(=O)O)c(=O)oc3c2)cc(OC)c1OC	inactive	–
Cc1ccccc1CSCC(=O)NCCSc1ccccn1	inactive	–
CN(C)c1cc(-c2ccc(Cl)c(Cl)c2)oc(=O)c1Cl	inactive	–
COc1ccc(C(=O)NCC(=O)N2CCN(C(=O)c3ccco3)CC2)cc1[N+](=O)[O-]	inactive	–
CCOC(=O)C1=C(C)n2c(s/c(=C/c3cccc([N+](=O)[O-])c3)c2=O)=NC1c1ccc(O)c(OC)c1 (configuration not stated)	inconclusive [cytotoxic, single point]	–
O=C(CSc1nnc(COc2ccc(F)cc2)o1)N1c2ccccc2CCc2ccccc21	inconclusive [cytotoxic, single point]	–
CC1CCN(c2nc3c(c(=O)n(C)c(=O)n3C)n2CCSc2ncccn2)CC1	inactive	–
CC(Oc1ccccc1Cl)C(=O)Nc1ccccc1C(=O)N1CCOCC1 (configuration not stated)	inactive	–
O=C(Nc1ccc(Cl)cc1)N1CCC(c2nc(-c3cccs3)no2)CC1	inconclusive [cytotoxic, single point]	–
COc1cc2c(cc1OC)C(c1ccc(Br)cc1)NCC2 (configuration not stated)	inactive	–
COc1ccc(OCCOC(=O)c2cc(S(=O)(=O)N3CCOCC3)c(Cl)cc2Cl)cc1	inconclusive [cytotoxic, partial curve, poor fit]	–
COc1ccc(-n2ccnc2CN2CCCC(CO)(Cc3cccc(OC)c3)C2)cc1 (configuration not stated)	inactive	–
N/C(=C\C(=O)c1cc(Cl)ccc1O)C(Cl)(Cl)Cl	active: 13 µM	–
CCN(CC)c1ccc(NC(=O)c2cc(OC)cc(OC)c2)c(C)c1	active: 4.61 µM	–
CCN(CC)C(=O)c1cccc(-c2csc(C(O)(c3ccccc3)C(F)(F)F)n2)c1 (configuration not stated)	active: 16.4 µM	–
CCNC(=O)c1cc2c(c(-c3cccc(-c4cccnc4)c3)n1)[C@H](CCO)N(S(C)(=O)=O)C2	active: 2.31 µM	–
O=C(C1CCCCC1)N1CCN(c2ccnc3cc(Cl)ccc23)CC1	inconclusive [cytotoxic, single point]	–
O=C(c1cc(COc2ccc(F)c(F)c2)on1)N1CCN(C/C=C/c2ccccc2)CC1	inconclusive [cytotoxic, single point]	–
CCOc1ccccc1NC1=C(Cl)C(=O)N(Cc2ccccc2)C1=O	inconclusive [cytotoxic, single point]	–

Reference: PubChem BioAssay AID686971 (National Center for Advancing Translational Sciences (NCATS), 2013)
